Measured values published in publication PMC8414166.

Columns and labels:
[1] = anti-HA immunofluorescence, non-permeabilized CHO cells; details: glycan lost; control: wild-type 2HA-PKR2
[2] = fixed-cell ELISA, anti-HA, permeabilized cells; details: glycan lost; control: wild-type 2HA-PKR2
[3] = surface cell ELISA and immunofluorescence with MRAP2 co-expression; details: glycan lost; control: wild-type 2HA-PKR2 with MRAP2
[4] = fixed-cell ELISA, anti-HA, non-permeabilized cells; details: glycan lost; control: wild-type 2HA-PKR2

Protein	localisation_or_trafficking [1]	expression_or_secretion, percent_of_wt [2]	other: MRAP2-mediated inhibition of surface trafficking [3]	localisation_or_trafficking, percent_of_wt [4]
PKR2: N7Q (protein) parent chain: MAAQNGNTSFTPNFNPPQDHASSLSFNFSYGDYDLPMDEDEDMTKTRTFFAAKIVIGIALAGIMLVCGIGNFVFIAALTRYKKLRNLTNLLIANLAISDFLVAIICCPFEMDYYVVRQLSWEHGHVLCASVNYLRTVSLYVSTNALLAIAIDRYLAIVHPLKPRMNYQTASFLIALVWMVSILIAIPSAYFATETVLFIVKSQEKIFCGQIWPVDQQLYYKSYFLFIFGVEFVGPVVTMTLCYARISRELWFKAVPGFQTEQIRKRLRCRRKTVLVLMCILTAYVLCWAPFYGFTIVRDFFPTVFVKEKHYLTAFYVVECIAMSNSMINTVCFVTVKNNTMKYFKKMMLLHWRPSQRGSKSSADLDLRTNGVPTTEEVDCIRLK	no change	decreases	no change	decreases
PKR2: N7/27Q (protein) parent chain: MAAQNGNTSFTPNFNPPQDHASSLSFNFSYGDYDLPMDEDEDMTKTRTFFAAKIVIGIALAGIMLVCGIGNFVFIAALTRYKKLRNLTNLLIANLAISDFLVAIICCPFEMDYYVVRQLSWEHGHVLCASVNYLRTVSLYVSTNALLAIAIDRYLAIVHPLKPRMNYQTASFLIALVWMVSILIAIPSAYFATETVLFIVKSQEKIFCGQIWPVDQQLYYKSYFLFIFGVEFVGPVVTMTLCYARISRELWFKAVPGFQTEQIRKRLRCRRKTVLVLMCILTAYVLCWAPFYGFTIVRDFFPTVFVKEKHYLTAFYVVECIAMSNSMINTVCFVTVKNNTMKYFKKMMLLHWRPSQRGSKSSADLDLRTNGVPTTEEVDCIRLK	abolishes	decreases		decreases
PKR2: N27Q (protein) parent chain: MAAQNGNTSFTPNFNPPQDHASSLSFNFSYGDYDLPMDEDEDMTKTRTFFAAKIVIGIALAGIMLVCGIGNFVFIAALTRYKKLRNLTNLLIANLAISDFLVAIICCPFEMDYYVVRQLSWEHGHVLCASVNYLRTVSLYVSTNALLAIAIDRYLAIVHPLKPRMNYQTASFLIALVWMVSILIAIPSAYFATETVLFIVKSQEKIFCGQIWPVDQQLYYKSYFLFIFGVEFVGPVVTMTLCYARISRELWFKAVPGFQTEQIRKRLRCRRKTVLVLMCILTAYVLCWAPFYGFTIVRDFFPTVFVKEKHYLTAFYVVECIAMSNSMINTVCFVTVKNNTMKYFKKMMLLHWRPSQRGSKSSADLDLRTNGVPTTEEVDCIRLK	abolishes	decreases, expression of PKR2-N27Q and PKR2-N7/27Q were about half of the unmodified receptor		decreases
